# The whole screen tested about 48,000 compounds, of which about 120 (0.25%) were called active. About 4% were inconclusive and are not listed. Calls come from the whole dose curve; as a rule, active = well fitted activation curve with a large enough effect; inconclusive = small, poorly fitted or top-dose-only effect, or another doubt; inactive = no such curve, though single readings can be large or run the other way. The list shows a part of the results.
# Assay: Primary qHTS for Identification of Small Molecule Activators of Huntingtin-Antisense Promoter Activity; note: nearly all actives have a fitted effect of over 55% in size
# Details: HEK293 HTT-AS promoter firefly luciferase reporter, 24 h; series mostly up to 57.5 µM; activity change, positive = activation: at the top concentration
# In short: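 Quantitative HTS used concentration series of up to 57.5 uM final on HEK293 luciferase reporter cells, 24 h at 37 degrees C. Readout was Dual-Glo firefly luminescence.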
row,SMILES,"activity change, positive = activation"
1,COc1ccc(C2CC(=O)Nc3c2c(=O)[nH]c2nc4ccccc4n32)cc1 (configuration not stated),inactive: -19.1%
2,CCn1cc(C(=O)Nc2cccc(Cl)c2)c2cc(OC)c(OC)cc2c1=O,inactive: -27.8%
3,Cc1cc(C)cc(NC(=O)CSc2nc3c(c(=O)[nH]2)CN(Cc2ccc(F)cc2)CC3)c1,inactive: -7.95%
4,COc1ccccc1N1CCN(C(=O)Cn2c(=O)n3nc(-c4cccc(F)c4)nc3c3ccccc32)CC1,inactive: -2.61%
5,CCCCN(CC)CCNC(=O)C1CCN(S(=O)(=O)c2cccc3nsnc23)CC1,inactive: -0.396%
6,CCNC(=O)c1ccc(NC(=O)N2CCCCc3ccccc32)cc1,inactive: -12.9%
7,COc1cc(NC(=O)CN2CCN(c3ccc(F)cc3)CC2)cc(OC)c1,inactive: -12%
8,Cc1nn(CC(=O)NC2CCC(C)CC2)c(=O)c2c1sc1ccccc12 (configuration not stated),inactive: 18%
9,CCn1cc2nc(SCC(=O)Nc3cc(OC)cc(OC)c3)n(Cc3ccc(Cl)cc3)c(=O)c2n1,inactive: -20.7%
10,Cc1ccc(NC(=O)CCc2c(C)nc3c(-c4ccc(F)cc4)c(C)nn3c2C)cc1F,inactive: -1.2%
11,Cc1ccc2oc(-c3ccc(NC(=O)CCC(=O)O)cc3)nc2c1,inactive: 25.4%
12,Cc1cc(C)c(Nc2ncnc3c2cnn3C)c(C)c1,inactive: 0%
13,O=C(/C=C/c1ccccc1Cl)N1CCC(c2nc3ccccc3o2)CC1,inactive: -18.6%
14,CCOc1ccc(NC(=O)c2sc3nc4n(c(=O)c3c2C)CCC4)cc1,inactive: 1.39%
15,COC(=O)N1CCCc2cc(S(=O)(=O)NCc3ccccc3)ccc21,inactive: -20.5%
16,COc1ccc(OC(=O)c2nc(SCc3ccccc3F)ncc2Cl)cc1,inactive: -3.78%
17,Cc1ccc(NC(=O)Cn2c(=O)n(Cc3ccco3)c(=O)c3oc4ccccc4c32)cc1C,inactive: -2.31%
18,CCC(C)NC(=O)c1nn(-c2ccc(C)cc2)nc1CO (configuration not stated),inactive: -0.296%
19,Cc1cccc(CN2C(=O)c3ccccc3Sc3ccc(C(=O)NC4CCCCC4)cc32)c1,inactive: -11.4%
20,CC(C)(C)c1ccc(C(=O)NCC(c2cccnc2)N2CCc3ccccc3C2)cc1 (configuration not stated),inactive: -81.4%
21,Cc1cccc(CNC(=O)C2CCC(CNS(=O)(=O)c3ccc4c(c3)CCCC(=O)N4)CC2)c1 (configuration not stated),inactive: -22.1%

row,SMILES,"activity change, positive = activation"
1,O=C(Nc1ccc2nc(SCC(=O)N3CCOCC3)sc2c1)c1cccc(Br)c1,inactive: -34.2%
2,CC[C@@]1(c2ccccc2)NC(=O)N(C)C1=O,inactive: -6.22%
3,CCc1nn(CC(=O)N2CCN(c3ccc(OC)cc3)CC2)c(=O)c2cc3sccc3n12,inactive: -15.5%
4,CC(CCc1ccccc1)NC(=O)Cn1ncc2c3ccccc3n(Cc3ccccc3F)c2c1=O (configuration not stated),inactive: 22.7%
5,CCC(=O)C1=C(c2ccc(F)cc2)N(C(=O)CC)n2c(nnc2-c2ccc(OC)cc2)S1,inactive: -13.9%
6,O=C(CSc1nccn1-c1cccc(Cl)c1)Nc1ccc2c(c1)OCO2,inactive: 6.86%
7,COc1ccc(-c2cnc(C)o2)cc1S(=O)(=O)Nc1ccc(NC(C)=O)cc1,inactive: 2.12%
8,Cn1c(=O)oc2cc(S(=O)(=O)CCC(=O)N3CCN(c4ccccc4F)CC3)ccc21,"inactive: -13.6% [at 11.5 µM, percent change from vehicle, -100% = no light]"
9,O=C(CCn1c(=O)c2cccn2c2cccnc21)N1CCN(c2ccccc2)CC1,inactive: -10.5%
10,CCn1c(SCC(=O)Nc2ccccc2C(=O)OC)nc2ccsc2c1=O,inactive: -13.7%
11,Cc1ccc(-c2cc(C(=O)Oc3ccc(C#N)cc3)no2)cc1,inactive: 12.3%
12,CCC(=O)NNc1ncnc2c1cnn2-c1ccc(C)c(Cl)c1,inactive: -4.95%
13,O=C(CSc1nc(=O)[nH]c2c1CCC2)NCc1ccccc1Cl,inactive: -1.44%
14,CCN(Cc1ccccc1)C(=O)Cn1c(=O)n(-c2ccccc2)c(=O)c2c1c1cc(C)ccc1n2C,inactive: -14.6%
15,CCc1ccc(CSc2nc(-c3ccccc3F)nc3c2Cc2c(CO)cnc(C)c2O3)cc1,inactive: -13.4%
16,CCSc1ccccc1C(=O)N1CCN(c2nc3ccccc3s2)CC1,inactive: -42.1%
17,Cc1ccc(C)c(NC(=O)CSc2nc3ccccc3nc2N2CCOCC2)c1,inactive: 23.9%
18,CC(C)(C)OC(=O)N1CCC(c2c(C(=O)N3CCCCC3)cnn2-c2ccc(F)cc2)CC1,inactive: -11.1%
19,COc1cccc(NC(=O)c2oc3ccc(S(=O)(=O)N(C)C4CCCCC4)cc3c2C)c1,inactive: -34.7%
20,COC(=O)c1ccc(NC(=O)c2cnn(-c3ccc(Cl)cc3)c2C2CCN(C(=O)OC(C)(C)C)CC2)cc1,inactive: -27.2%
21,COc1ccccc1C(=O)Nc1cccc(OCc2cc(=O)n3ccccc3n2)c1,inactive: 21.6%

row,SMILES,"activity change, positive = activation"
1,Cc1cc(C)c(NC(=O)c2cc(C)nc3c2c(C)nn3-c2cccc(F)c2)c(C)c1,inactive: -9.8%
2,Cc1cc2oc(C(=O)N(Cc3ccc(Cl)cc3)Cc3ccco3)c(C)c2cc1Cl,inactive: -19.1%
3,CCN(CC)C(=O)c1c(NC(=O)c2ccccc2F)sc2c1CCC(C(C)(C)C)C2 (configuration not stated),inactive: -24.9%
4,CCc1ccc(-c2nn(-c3ccc(OC)cc3)c3c2cnc2ccc(OC)cc23)cc1,inactive: -12.2%
5,O=C(CSc1nccn1Cc1ccc2c(c1)OCO2)Nc1ccccc1F,inactive: -11.3%
6,CCCn1c(=O)sc2cc(NC(=O)c3ccccc3Cl)ccc21,inactive: 3.64%
7,COc1cc(NC(=O)CCn2nc(C)cc2C)cc(OC)c1OC,inactive: -4.76%
8,CCC1CCCCN1CCCNC(=O)c1cn(C)c2ccc(S(=O)(=O)N(C)C3CCCCC3)cc2c1=O (configuration not stated),inactive: -13.4%
9,COc1cccc(N2CCN(C(=O)c3cccn3-c3nnc(N4CCCCC4)s3)CC2)c1,inactive: -6.59%
10,O=C1CC(c2ccc(Cl)cc2)CC(=O)N1,inactive: -3.56%
11,Cc1cc(Nc2ccccc2C)c2cccc(C)c2n1,inactive: -19.2%
12,COCCCN1CCC(NC(=O)c2cc(Cl)c(N)c3c2OCC3)CC1,inactive: -0.803%
13,CCC(C)n1c(SCC(=O)Nc2ccccc2C(=O)OC)nc2ccsc2c1=O (configuration not stated),inactive: -37.5%
14,O=C(NCc1c(-n2cccc2)sc2c1CCCC2)Nc1cccc(C(F)(F)F)c1,inactive: -23.8%
15,CCc1ccc(NC(=O)C2CCCN(S(=O)(=O)c3ccc4c(c3)oc(=O)n4C)C2)cc1 (configuration not stated),inactive: -14.6%
16,COCCCNC(=O)CCCn1c(SCC(=O)c2ccc(Br)cc2)nc2c(sc3ccccc32)c1=O,inactive: -8.27%
17,Cc1ccc(C(=O)NCC(c2ccc(Cl)cc2)N2CCCCC2)cc1 (configuration not stated),inactive: -12.3%
18,CCOc1ccc(C(=O)N2CC(=O)Nc3ccc(C)cc3C2c2ccc(F)cc2)cc1OCC (configuration not stated),inactive: -31.7%
19,Cc1ccc(Cl)c2sc(NC(=O)c3ccc(S(=O)(=O)N4CCCC4)cc3)nc12,inactive: -33.6%
20,COc1cccc(CNC(=O)c2cccc(N3CCCS3(=O)=O)c2)c1,inactive: -15.6%
